Data reported in the supplement of paper PMC12632987.
In all, about 4,500 sequences were measured (“median log2 fold change of GCK-ALFA target abundance (FLAG IP / Myc IP barcode read proportion)”: median about 0.078, lowest 2% from about -0.6 on). This is one part of the list.

B1: GBRAP_83_6882 (protein)
chain: KEEIVVAGPSDRVEELVEIAIDLHKNEGYDVTIEILVTREGIEAVLEAVKRLAEEGVDTEVIVVGKGLSKEEMEKLKKEMEEIAKKYGSNIKIEVLLDEP
B2: GBRAP_39_5643 (protein)
chain: EEEEENELIFSYLEAVGAKYQYEKGLSDEEMKEKTLELLDKAKKELPEIKELLEELKKLVEEGDESVVVAAYGVLLLYEEGTPEEEVKEHIEKLINYLKS
B3: GBRAP_45_5800 (protein)
chain: MEELEEEIKELTELLKKIKEEVEKLKELDPEKFGKVLKLVKEALKILEEGPDTVEKAQELLKLVEEALKLLASSEHASGELLDLALEAVNEAADILELLK
B4: GBRAP_128_3446 (protein)
chain: KEEEIEKYAKEVKEEFKEKLKEGPKAAAEYFIEVLEKVDDEKAEKITKEVIEYLKEQDIKLASEVLDEMMRLSKRLTPEKRAILLEYVSPLLYELEEKEE
B5: GBRAP_11_2805 (protein)
chain: KEEKLKELRKLLEKAAELIDKLLKVGTDDKELLKEIEKVLEEAEKLAKELGDESLIKLVEIAKELVKQAKADPKNAEQYLKLARATLRVAEGQVLLLIEE
B6: GBRAP_74_6548 (protein)
chain: SAELLARAREAAAAGDLDTLVELTREALAAGDKETAAEILALLLRTAVARADELTLAEADALVDVIDEVLASGVTKLLSRETLKLLVEVLARAKELEEAA
B7: GBRAP_184_5208 (protein)
chain: EIKEFEIEFENEEELKEKLEELLKKVEGFKGDLYIIVKAPKFTKEMAELLLKALKEIKENGYAKKIVVEVEGEVSEEVLDLLLEGAKEIGVQIVVALSEE
B8: GBRAP_128_3518 (protein)
chain: STEEAVAKVRELMAKIKEASPEEAAELTREIAALIEAADPETREAMVDEFISLLPELSKEKLETIADTLRELRPAADPDVANLLAEVEVEALNEALELEE
B9: GBRAP_80_6779 (protein)
chain: ALERARAAIKRLEELNPEFAERARKILEKLEEKGASDETFEAFAEAVEAIAELLKLGLEEEAAELLEEMEEAAEEEDEEERTAMFRGIAGEALLAVEEAE
B10: GBRAP_52_6137 (protein)
chain: MEEELRKKAEEIIALVKAGKLDEAKALAEELAKSLNDEELKKFADKFAELVLKLPKEELDAAARAMDIVVDALEKVGVDEELISYFLGKATKAMYEVELR
B11: GBRAP_52_6033 (protein)
chain: MREEMRRLAEEIIALVKAGRLEEARALVREIVATKSEEELRLLGEELARLTREAPPEDLDAYMEAAEILADAMVEAGYEEVLADDLLARVAAAAVENLAA
B12: GBRAP_128_3561 (protein)
chain: SVEEAVAEAERLLEKIKASGPEEAREYARELAELLAAADEETREAMVETILARLPELSVEHLEILADVFREARPAADPRTAEALAEIEVEALNEAEEKEE
B13: GBRAP_83_6947 (protein)
chain: KEKIVVAANDDNVEEAVKIAADLAKTGKYEVTLEFIGTVEAAKKLIKEVEKALKEGVKFDVEVLLKGATEEEVKEIKAEFEKVAKAAGADVKVEVHAIKP
B14: GBRAP_78_6598 (protein)
chain: EVEELVDKAIEHLDKAAKLAKKLPPEESNKLLDLLVDAMSYLLEAIENGFDLELLEKAKEYVEKAIELAKKFNHPESPEIIKELEKALELLEKAIELVKK
B15: GBRAP_52_5953 (protein)
chain: MREEVERLVEELWALVAAGDLEGARALAREAVRTWDEEELRLLAEAVVERVAAAPPERLDEAFTLAEIVADEIEEEGRDEALAGDLLAGAARAIHAKELA
B16: GBRAP_166_4946 (protein)
chain: SLEEIVEETREFIEELAEQMKDADEEEQLDIYAEIAEKIEEAKEAGVPEEDILELIRLALELTKEAGGSVEQLVGVLEMFVDLSEEERDKVIELAKEVLK
B17: GBRAP_150_3888 (protein)
chain: DLETLEAIASTALDLLEESIETGGALLDAALKVVKALVDEAKEVSEELEKLAKEALKKIEEAKKLKKAGGPEEEIKKLLEEAAKIVEEILEKVEKLIEEE
B18: GBRAP_160_4675 (protein)
chain: SEEVEKLIEEIREILEEAVEMMEGESLEERIAIARVARGEILLLLSESPLVSDEIEDKADEIGEEFVEWIEAHPDATREELRELAEEAREKIEKAILEGQ
B19: GBRAP_184_5336 (protein)
chain: TTLEVSIEDLSLEEILARAAAAAAEAAAAGADLLIHLDLKGKSGEEIAEIVEAIGKIAKAAGIKNLTIGIDQAVDEETADKLIAIADKYGINLTLALEDE
B20: GBRAP_160_4141 (protein)
chain: KEELEKLIEEIREIAEEAIELIKDESREEAVAIARVALGEIVLLVMSNEAVSEETEEKVGEITRRAEEELLRRKDATNEEIIELLRRAAEEIIEILKEEI
B21: GBRAP_11_2922 (protein)
chain: EKEKLEEMAKLAEELAKTIEKLIEEGVDNEELLKEAEKKLKELEELTKKYGDEAAKKLVEIAKEEWEKALEDPENREEYLQRARNTARVLAGLYLLELEE
B22: GBRAP_80_6815 (protein)
chain: MEEEIEKNLKEIEEIDPELAKKVQEIVELARKLGVPLELIARYVKAILELAKLDLEKAKELVERLLARIKEAAAAGDREAALAEIVDAESEALLEVEELE
B23: GBRAP_52_6365 (protein)
chain: MLEEAVELLRKAVEATLAGKEEEAEEILKEIVENFSDETIVKAVERLAEEVATKTLEEAEAFLDTAIRLADIMLEAGRDEAKADEIEAIAAKAYSAVLAK
B24: GBRAP_78_6606 (protein)
chain: EVEELLEEAIELLSKAAKLLKELPPEVRDELMDLLVEAMSLLLESIEEGPNLKLLEEALKHVEEAIELLKKEKTPEAEKIIKLLEEAKEKIEKAIKLLKK
B25: GBRAP_14_3764 (protein)
chain: MEEIEKIIEETAREIVELLAEIAPERAEEFRRAVEEVRRKTIEEIRKTGNPEEAAEKGEEELVARVRAITADLPAEERARLEAVVRVEMGQAILEIDELL
B26: GBRAP_137_3639 (protein)
chain: MNVTIKTKTIDDLVEIEIEFDDPEKAEEAAELIEDIAHKHGALALSIEINEDGTLEATIWVPKEKAQALIDALVKAFKEKLKATVTIIDEDTGEVKTIKA
B27: GBRAP_26_5487 (protein)
chain: FEEEILRELEEEVRKILADEDETLRAAVIAEAEDLVLEAYEEFEKNADNKEAIKKAKEEALKELEEFLEKMGLSEEKRKKVVEAVEKALKRLEKEIQKKK
B28: GBRAP_74_6513 (protein)
chain: MEELLKKLEEAAKAGDVKELVKLAKEIAKTGDKETIERAAEIVVAYVEAHLDSLTPEELEALADALAELADKLMELGGDSETINRVAATAVALEEKLLAL
B29: GBRAP_128_3345 (protein)
chain: VDEEFIEEIKKLIEEMLEANEEEAKKLAKEIMEKLVKASLEEVKKAAEIIEENMPKFTAEHLEILADELRKYYDKFTPEQQEVIADLIVDLLNAAEEKEE

target: GABARAP, O95166; test: median log2 fold change of GCK-ALFA target abundance (FLAG IP / Myc IP barcode read proportion) (log2 ratio); each designed protein is fused to an ALFA-tag nanobody in HEK293 cells to bring the named protein to FLAG-tagged glucokinase (GCK); Myc marks an untargeted standard; higher = target protein stabilised (more abundant); conditions: target protein: 3xFLAG-MCP-GCK-ALFA reporter; HEK293 landing pad (RPLP)
In short: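 The readout is target abundance, the per-binder median log2 ratio of FLAG to Myc barcode read proportions. It came from HEK293 landing-pad cells carrying a recombined ALFA-nanobody-fused binder library, induced with 2 μg mL^−1 doxycycline and transfected with a plasmid for a FLAG-tagged target and a Myc-tagged standard. After 48 h, lysates were immunoprecipitated with anti-FLAG and anti-Myc, and circular RNA barcodes were reverse transcribed, amplified and sequenced. Each barcode needed a proportion of at least 10^−7 in both replicates and each binder at least 3 barcodes per replicate, a pseudocount of 10^−6 was added, and the replicates were pooled.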

GABARAP, O95166, sequence (O95166 whole entry, the tested form may be a part): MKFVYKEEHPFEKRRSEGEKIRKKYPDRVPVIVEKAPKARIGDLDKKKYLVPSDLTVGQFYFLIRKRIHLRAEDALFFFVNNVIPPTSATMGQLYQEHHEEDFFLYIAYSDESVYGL

Point of comparison: B13, “median log2 fold change” value 0.139. Against it:
- B1 — within 0.2 log units, -0.0417
- B2 — within 0.2 log units, 0.147
- B3 — within 0.2 log units, 0.274
- B4 — within 0.2 log units, 0.3
- B5 — lower, -0.138
- B6 — lower, -0.211
- B7 — within 0.2 log units, 0.0734
- B8 — within 0.2 log units, 0.0162
- B9 — within 0.2 log units, -0.0127
- B10 — within 0.2 log units, 0.184
- B11 — lower, -0.302
- B12 — within 0.2 log units, 0.287
- B14 — within 0.2 log units, 0.052
- B15 — lower, -0.171
- B16 — lower, -0.0927
- B17 — within 0.2 log units, 0.101
- B18 — within 0.2 log units, 0.00851
- B19 — higher, 0.367
- B20 — lower, -0.308
- B21 — within 0.2 log units, 0.194
- B22 — within 0.2 log units, 0.197
- B23 — within 0.2 log units, -0.000301
- B24 — lower, -0.743
- B25 — lower, -0.129
- B26 — within 0.2 log units, 0.175
- B27 — within 0.2 log units, 0.208
- B28 — within 0.2 log units, 0.247
- B29 — within 0.2 log units, 0.223
